# Test results from the supplement of paper PMC8728848.
# Some of the results follow.
# Key:
# Assay in all cases: glycan array binding signal (z-score within array); higher = stronger binding
# Conditions in all cases: glycan notation: IUPAC condensed, linker removed
# [1] = molecular target: Neu5Ac(a2-3)Gal(b1-3)GlcNAc6S
# How it was run: (§1)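 Glycan array data came from 3228 arrays in the Consortium for Functional Glycomics database, and only arrays with an available protein sequence were kept. Glycan names were put into IUPAC-condensed notation, and columns mapping to the same glycan were averaged. The binding signal is a within-array Z-score, averaged across arrays of one protein sequence run at different concentrations or buffers and across linkers. A negative Z-score can be read as non-binding.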
# [2] = molecular target: Neu5Ac(a2-3)Gal(b1-3)[Fuc(a1-4)]GlcNAc
# How it was run: as §1
# [3] = molecular target: Neu5Ac(a2-3)Gal(b1-3)[Fuc(a1-4)]GlcNAc(b1-3)Gal(b1-3)[Fuc(a1-4)]GlcNAc
# How it was run: as §1
# [4] = molecular target: Neu5Ac(a2-3)Gal(b1-3)[Fuc(a1-4)]GlcNAc(b1-3)Gal(b1-4)[Fuc(a1-3)]GlcNAc
# How it was run: as §1
# [5] = molecular target: Neu5Ac(a2-3)Gal(b1-3)[GlcNAc(b1-6)]GalNAc
# How it was run: as §1
# [6] = molecular target: Neu5Ac(a2-3)Gal(b1-3)[Neu5Ac(a2-6)]GalNAc
# How it was run: as §1
# [7] = molecular target: Neu5Ac(a2-3)Gal(b1-3)[Neu5Ac(a2-6)]GlcNAc(b1-3)[Fuc(a1-3)[Gal(b1-4)]GlcNAc(b1-6)]Gal(b1-4)Glc
# How it was run: as §1
# [8] = molecular target: Neu5Ac(a2-3)Gal(b1-3)]Neu5Ac(a2-3)Gal(b1-4)]GlcNAc
# How it was run: as §1
# Neu5Ac(a2-3)Gal(b1-4)Glc = molecular target: Neu5Ac(a2-3)Gal(b1-4)Glc
# How it was run: as §1
# [9] = molecular target: Neu5Ac(a2-3)Gal(b1-4)GlcNAc
# How it was run: as §1
# [10] = molecular target: Neu5Ac(a2-3)Gal(b1-4)GlcNAc(b1-2)Man
# How it was run: as §1
# [11] = molecular target: Neu5Ac(a2-3)Gal(b1-4)GlcNAc(b1-2)Man(a1-3)[GlcNAc(b1-4)][Neu5Ac(a2-3)Gal(b1-4)GlcNAc(b1-2)Man(a1-6)]Man(b1-4)GlcNAc(b1-4)GlcNAc
# How it was run: as §1
# [12] = molecular target: Neu5Ac(a2-3)Gal(b1-4)GlcNAc(b1-2)Man(a1-3)[Neu5Ac(a2-3)Gal(b1-4)GlcNAc(b1-2)Man(a1-6)]Man(b1-4)GlcNAc(b1-4)GlcNAc
# How it was run: as §1
# [13] = molecular target: Neu5Ac(a2-3)Gal(b1-4)GlcNAc(b1-2)Man(a1-3)[Neu5Ac(a2-3)Gal(b1-4)GlcNAc(b1-2)Man(a1-6)]Man(b1-4)GlcNAc(b1-4)[Fuc(a1-6)]GlcNAc
# How it was run: as §1
# [14] = molecular target: Neu5Ac(a2-3)Gal(b1-4)GlcNAc(b1-2)Man(a1-3)[Neu5Ac(a2-6)Gal(b1-4)GlcNAc(b1-2)Man(a1-6)]Man(b1-4)GlcNAc(b1-4)GlcNAc
# How it was run: as §1
# [15] = molecular target: Neu5Ac(a2-3)Gal(b1-4)GlcNAc(b1-2)[Neu5Ac(a2-3)Gal(b1-4)GlcNAc(b1-4)]Man(a1-3)[GlcNAc(b1-4)][Neu5Ac(a2-3)Gal(b1-4)GlcNAc(b1-2)[Neu5Ac(a2-3)Gal(b1-4)GlcNAc(b1-6)]Man(a1-6)]Man(b1-4)GlcNAc(b1-4)GlcNAc
# How it was run: as §1
# [16] = molecular target: Neu5Ac(a2-3)Gal(b1-4)GlcNAc(b1-2)[Neu5Ac(a2-3)Gal(b1-4)GlcNAc(b1-4)]Man(a1-3)[GlcNAc(b1-4)][Neu5Ac(a2-3)Gal(b1-4)GlcNAc(b1-4)Man(a1-6)]Man(b1-4)GlcNAc(b1-4)GlcNAc
# How it was run: as §1
# [17] = molecular target: Neu5Ac(a2-3)Gal(b1-4)GlcNAc(b1-2)[Neu5Ac(a2-3)Gal(b1-4)GlcNAc(b1-6)]Man(a1-6)[Neu5Ac(a2-3)Gal(b1-4)GlcNAc(b1-2)Man(a1-3)]Man(b1-4)GlcNAc(b1-4)GlcNAc
# How it was run: as §1
# [18] = molecular target: Neu5Ac(a2-3)Gal(b1-4)GlcNAc(b1-2)[Neu5Ac(a2-3)Gal(b1-4)GlcNAc(b1-6)]Man(a1-6)[Neu5Ac(a2-3)Gal(b1-4)GlcNAc(b1-2)Man(a1-3)][GlcNAc(b1-4)]Man(b1-4)GlcNAc(b1-4)GlcNAc
# How it was run: as §1
# [19] = molecular target: Neu5Ac(a2-3)Gal(b1-4)GlcNAc(b1-3)Gal
# How it was run: as §1
# [20] = molecular target: Neu5Ac(a2-3)Gal(b1-4)GlcNAc(b1-3)Gal(b1-3)GlcNAc
# How it was run: as §1
# [21] = molecular target: Neu5Ac(a2-3)Gal(b1-4)GlcNAc(b1-3)Gal(b1-4)GlcNAc
# How it was run: as §1
# [22] = molecular target: Neu5Ac(a2-3)Gal(b1-4)GlcNAc(b1-3)Gal(b1-4)GlcNAc(b1-2)Man(a1-3)[Neu5Ac(a2-3)Gal(b1-4)GlcNAc(b1-3)Gal(b1-4)GlcNAc(b1-2)Man(a1-6)]Man(b1-4)GlcNAc(b1-4)GlcNAc
# How it was run: as §1
# [23] = molecular target: Neu5Ac(a2-3)Gal(b1-4)GlcNAc(b1-3)Gal(b1-4)GlcNAc(b1-3)Gal(b1-4)GlcNAc
# How it was run: as §1
# [24] = molecular target: Neu5Ac(a2-3)Gal(b1-4)GlcNAc(b1-3)Gal(b1-4)GlcNAc(b1-3)Gal(b1-4)GlcNAc(b1-2)Man(a1-3)[Neu5Ac(a2-3)Gal(b1-4)GlcNAc(b1-3)Gal(b1-4)GlcNAc(b1-3)Gal(b1-4)GlcNAc(b1-2)Man(a1-6)]GalNAc
# How it was run: as §1
# [25] = molecular target: Neu5Ac(a2-3)Gal(b1-4)GlcNAc(b1-3)Gal(b1-4)GlcNAc(b1-3)GalNAc
# How it was run: as §1
# [26] = molecular target: Neu5Ac(a2-3)Gal(b1-4)GlcNAc(b1-3)Gal(b1-4)GlcNAc(b1-3)[Neu5Ac(a2-3)Gal(b1-4)GlcNAc(b1-3)Gal(b1-4)GlcNAc(b1-6)]GalNAc
# How it was run: as §1
# [27] = molecular target: Neu5Ac(a2-3)Gal(b1-4)GlcNAc(b1-3)Gal(b1-4)GlcNAc(b1-6)[Gal(b1-3)]GalNAc
# How it was run: as §1
# [28] = molecular target: Neu5Ac(a2-3)Gal(b1-4)GlcNAc(b1-3)Gal(b1-4)[Fuc(a1-3)]GlcNAc
# How it was run: as §1
# [29] = molecular target: Neu5Ac(a2-3)Gal(b1-4)GlcNAc(b1-3)GalNAc
# How it was run: as §1
binder,measurement,setting,value
PX9961A-pdi-456-24-456 (Parabacteroides distasonis) (protein) KTSSTQLPTIDAISSVADLTNAVNGVYEQQATEVGSYGAEFTLLADLRSGDFQSISTVNHAGPMYRYQTGKNDEMVYSFYKLFYNSLARLNNVLAAAENLEGADVDILKGELYAMRALYHFDLARVFAKLPSTTDMNDLGIVLSTEVYPTDYIGTRATLQQTYDQILKDIETALPLLSKDKQTGHINYWGALAIRARAYLYLEKNKEALADCKEIIASSPYKLYTRDEYIGAWDKEGTNEAIFEILVTPNYNAQRNSIGYFTHASGYGECAATESFLEELAKHPGDIRTELFAKETDNGYDGTYPQKYKGRDGQIYVNNPKVVRLSEVYLIAAEAALKAGDTSAAAGYMNTLRKNRIENYTDVASITLDDILLERRLELFTEGHTAWDAWRNGKSVNNKFVGEVKPGDYRTIMAIPIGEITVSRGQLIQNPGY,glycan array binding signal (z-score),[1],0.048
same,glycan array binding signal (z-score),[2],-0.184
same,glycan array binding signal (z-score),[3],-0.513
same,glycan array binding signal (z-score),[4],-0.508
same,glycan array binding signal (z-score),[5],-0.29
same,glycan array binding signal (z-score),[6],-0.301
same,glycan array binding signal (z-score),[7],0.108
same,glycan array binding signal (z-score),[8],-0.256
same,glycan array binding signal (z-score),Neu5Ac(a2-3)Gal(b1-4)Glc,0.082
same,glycan array binding signal (z-score),[9],0.195
same,glycan array binding signal (z-score),[10],-0.345
same,glycan array binding signal (z-score),[11],0.203
same,glycan array binding signal (z-score),[12],0.141
same,glycan array binding signal (z-score),[13],-0.022
same,glycan array binding signal (z-score),[14],-0.339
same,glycan array binding signal (z-score),[15],0.07
same,glycan array binding signal (z-score),[16],0.376
same,glycan array binding signal (z-score),[17],0.601
same,glycan array binding signal (z-score),[18],-0.585
same,glycan array binding signal (z-score),[19],-0.59
same,glycan array binding signal (z-score),[20],-0.238
same,glycan array binding signal (z-score),[21],0.369
same,glycan array binding signal (z-score),[22],-0.486
same,glycan array binding signal (z-score),[23],-0.385
same,glycan array binding signal (z-score),[24],0.105
same,glycan array binding signal (z-score),[25],-0.267
same,glycan array binding signal (z-score),[26],-0.383
same,glycan array binding signal (z-score),[27],-0.51
same,glycan array binding signal (z-score),[28],-0.407
same,glycan array binding signal (z-score),[29],-0.188
